Assay results published in PMC6955252.
No constants are given. Whether binding was seen depends on the method and setting. In cells and extracts the contact can be indirect. Some binding calls cover weakened binding; strength is not graded here. For part of these data: Tags and fused reporters may be left off the sequences shown.

The chains behind the UniProt entries cited, without tags or fusion partners.
UniProt P34947: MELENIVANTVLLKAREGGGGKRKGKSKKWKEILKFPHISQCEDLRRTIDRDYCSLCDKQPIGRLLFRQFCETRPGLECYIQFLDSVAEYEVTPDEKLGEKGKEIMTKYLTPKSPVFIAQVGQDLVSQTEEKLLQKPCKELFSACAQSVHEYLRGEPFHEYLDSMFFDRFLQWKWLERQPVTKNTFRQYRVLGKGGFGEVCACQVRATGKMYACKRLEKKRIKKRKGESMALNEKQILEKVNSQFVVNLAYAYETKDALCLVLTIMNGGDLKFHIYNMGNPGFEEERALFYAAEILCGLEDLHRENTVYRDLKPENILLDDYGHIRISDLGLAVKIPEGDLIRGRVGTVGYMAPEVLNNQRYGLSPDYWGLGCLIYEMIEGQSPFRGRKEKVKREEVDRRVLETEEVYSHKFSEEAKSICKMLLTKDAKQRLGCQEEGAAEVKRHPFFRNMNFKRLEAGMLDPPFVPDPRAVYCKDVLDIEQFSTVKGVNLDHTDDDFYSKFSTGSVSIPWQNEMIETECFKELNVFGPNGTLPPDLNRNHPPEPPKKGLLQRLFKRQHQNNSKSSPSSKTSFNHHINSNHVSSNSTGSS
UniProt P49407: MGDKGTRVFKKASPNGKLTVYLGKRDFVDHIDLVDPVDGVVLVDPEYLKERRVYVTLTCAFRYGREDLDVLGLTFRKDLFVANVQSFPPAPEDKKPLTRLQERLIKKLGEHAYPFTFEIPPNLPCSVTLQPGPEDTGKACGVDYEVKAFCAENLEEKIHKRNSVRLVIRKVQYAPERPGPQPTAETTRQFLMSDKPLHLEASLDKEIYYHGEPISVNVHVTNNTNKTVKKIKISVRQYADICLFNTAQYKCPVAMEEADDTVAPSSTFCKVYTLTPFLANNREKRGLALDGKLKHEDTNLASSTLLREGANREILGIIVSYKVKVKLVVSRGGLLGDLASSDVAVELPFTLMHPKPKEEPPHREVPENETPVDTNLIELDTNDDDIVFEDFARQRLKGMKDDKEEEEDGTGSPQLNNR
UniProt P25098: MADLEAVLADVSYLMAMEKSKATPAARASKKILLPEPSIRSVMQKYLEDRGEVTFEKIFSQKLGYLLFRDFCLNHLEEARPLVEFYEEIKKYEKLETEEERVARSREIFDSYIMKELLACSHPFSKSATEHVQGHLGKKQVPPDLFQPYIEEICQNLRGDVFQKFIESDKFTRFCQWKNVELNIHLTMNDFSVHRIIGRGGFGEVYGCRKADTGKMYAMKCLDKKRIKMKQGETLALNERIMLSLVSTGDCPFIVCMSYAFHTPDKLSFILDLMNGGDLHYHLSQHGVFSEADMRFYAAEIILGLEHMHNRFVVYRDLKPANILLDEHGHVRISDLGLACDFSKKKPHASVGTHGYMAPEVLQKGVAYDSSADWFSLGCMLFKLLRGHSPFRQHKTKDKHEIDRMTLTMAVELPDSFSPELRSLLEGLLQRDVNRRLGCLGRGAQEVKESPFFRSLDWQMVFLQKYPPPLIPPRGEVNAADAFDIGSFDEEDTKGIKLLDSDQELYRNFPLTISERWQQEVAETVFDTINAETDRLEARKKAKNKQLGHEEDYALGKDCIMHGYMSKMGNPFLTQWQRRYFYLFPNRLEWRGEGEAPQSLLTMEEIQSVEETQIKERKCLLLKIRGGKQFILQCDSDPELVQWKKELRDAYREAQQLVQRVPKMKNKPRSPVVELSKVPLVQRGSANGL
UniProt P43250: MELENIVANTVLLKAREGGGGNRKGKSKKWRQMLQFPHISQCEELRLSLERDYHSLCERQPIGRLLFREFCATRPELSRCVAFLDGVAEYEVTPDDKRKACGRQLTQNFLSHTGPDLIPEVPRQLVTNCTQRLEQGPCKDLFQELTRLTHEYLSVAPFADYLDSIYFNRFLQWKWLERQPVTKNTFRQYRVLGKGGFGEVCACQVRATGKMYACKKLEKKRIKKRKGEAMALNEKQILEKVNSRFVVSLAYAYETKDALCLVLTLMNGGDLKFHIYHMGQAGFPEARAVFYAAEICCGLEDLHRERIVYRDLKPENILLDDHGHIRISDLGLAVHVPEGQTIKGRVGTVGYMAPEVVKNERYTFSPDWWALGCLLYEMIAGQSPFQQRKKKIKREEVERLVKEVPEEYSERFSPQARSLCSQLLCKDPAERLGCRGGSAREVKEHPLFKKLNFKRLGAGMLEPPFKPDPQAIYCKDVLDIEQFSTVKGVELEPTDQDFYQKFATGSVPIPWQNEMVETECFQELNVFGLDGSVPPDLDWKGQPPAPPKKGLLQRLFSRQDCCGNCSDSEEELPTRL
UniProt P63010: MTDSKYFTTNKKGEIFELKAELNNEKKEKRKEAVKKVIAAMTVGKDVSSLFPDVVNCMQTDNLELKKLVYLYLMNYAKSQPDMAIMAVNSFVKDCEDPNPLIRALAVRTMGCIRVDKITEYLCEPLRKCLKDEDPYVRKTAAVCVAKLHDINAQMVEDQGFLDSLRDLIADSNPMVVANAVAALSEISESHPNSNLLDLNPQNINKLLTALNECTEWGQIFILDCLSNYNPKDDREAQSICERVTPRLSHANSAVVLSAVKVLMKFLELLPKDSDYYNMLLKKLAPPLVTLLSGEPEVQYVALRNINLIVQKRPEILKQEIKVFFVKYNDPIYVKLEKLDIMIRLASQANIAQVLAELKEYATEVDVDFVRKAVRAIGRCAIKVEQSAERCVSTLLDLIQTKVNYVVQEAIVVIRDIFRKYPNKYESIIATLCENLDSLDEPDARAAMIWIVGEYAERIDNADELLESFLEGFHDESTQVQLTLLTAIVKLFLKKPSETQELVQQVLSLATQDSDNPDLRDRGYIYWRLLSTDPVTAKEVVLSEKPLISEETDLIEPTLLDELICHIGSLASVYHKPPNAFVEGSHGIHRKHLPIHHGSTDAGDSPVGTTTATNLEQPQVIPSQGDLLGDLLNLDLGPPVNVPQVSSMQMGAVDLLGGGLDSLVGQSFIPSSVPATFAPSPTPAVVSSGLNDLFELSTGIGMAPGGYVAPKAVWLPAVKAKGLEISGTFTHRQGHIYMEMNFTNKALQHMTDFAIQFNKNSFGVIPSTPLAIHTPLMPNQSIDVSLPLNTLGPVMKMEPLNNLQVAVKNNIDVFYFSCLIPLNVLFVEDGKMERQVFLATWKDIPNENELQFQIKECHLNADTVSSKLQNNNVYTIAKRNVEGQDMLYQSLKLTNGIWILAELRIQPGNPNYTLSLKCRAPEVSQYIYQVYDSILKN

Molecular target: T1, FFAR2-VN (free fatty acid receptor 2 fused with Venus N-terminal residues 1 to 173) (human) (UniProt O15552)
T1 sequence: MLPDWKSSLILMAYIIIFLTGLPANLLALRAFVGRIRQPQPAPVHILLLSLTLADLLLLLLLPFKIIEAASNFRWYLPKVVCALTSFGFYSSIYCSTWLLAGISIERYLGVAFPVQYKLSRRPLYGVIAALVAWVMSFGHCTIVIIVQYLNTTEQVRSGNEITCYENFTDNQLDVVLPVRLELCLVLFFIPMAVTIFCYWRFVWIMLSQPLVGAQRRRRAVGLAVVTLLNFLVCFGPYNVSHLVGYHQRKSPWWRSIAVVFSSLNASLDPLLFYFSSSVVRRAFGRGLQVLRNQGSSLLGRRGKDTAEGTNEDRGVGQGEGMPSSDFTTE
Experiment: split reporter

Row | Substance | binding
1 | GRK5-VC (G protein-coupled receptor kinase 5 fused with Venus C-terminal residues 174 to 239) (from UniProt P34947 1-590) (enzyme) | binds
2 | β-arrestin1-VC (β-arrestin1 fused with Venus C-terminal residues 174 to 239) (from UniProt P49407 1-418) | binds
3 | GRK2-VC (G protein-coupled receptor kinase 2 fused with Venus C-terminal residues 174 to 239) (from UniProt P25098 1-689) (enzyme) | binds
4 | GRK6-VC (G protein-coupled receptor kinase 6 fused with Venus C-terminal residues 174 to 239) (from UniProt P43250 1-576) (enzyme) | binds
5 | AP2B1-VC (β2-subunit of the AP-2 complex fused with Venus C-terminal residues 174 to 239) (from UniProt P63010 1-937) | no binding

Molecular target: AP2B1-VN (β2-subunit of the AP-2 complex fused with Venus N-terminal residues 1 to 173) (UniProt P63010)
Experiment: split reporter

Row | Substance | binding
6 | β-arrestin1-VC (β-arrestin1 fused with Venus C-terminal residues 174 to 239) (from UniProt P49407 1-418) | binds
